Data: the supplement of paper PMC3334620
The full ranking holds about 33,000 sequences; the median of “E-score (-0.5 to 0.5)” is about -0.021, and the highest 2% start at about 0.32. The list shows a part of the results.

Biological target: T1, Zap1 (UniProt P47043)
T1 sequence: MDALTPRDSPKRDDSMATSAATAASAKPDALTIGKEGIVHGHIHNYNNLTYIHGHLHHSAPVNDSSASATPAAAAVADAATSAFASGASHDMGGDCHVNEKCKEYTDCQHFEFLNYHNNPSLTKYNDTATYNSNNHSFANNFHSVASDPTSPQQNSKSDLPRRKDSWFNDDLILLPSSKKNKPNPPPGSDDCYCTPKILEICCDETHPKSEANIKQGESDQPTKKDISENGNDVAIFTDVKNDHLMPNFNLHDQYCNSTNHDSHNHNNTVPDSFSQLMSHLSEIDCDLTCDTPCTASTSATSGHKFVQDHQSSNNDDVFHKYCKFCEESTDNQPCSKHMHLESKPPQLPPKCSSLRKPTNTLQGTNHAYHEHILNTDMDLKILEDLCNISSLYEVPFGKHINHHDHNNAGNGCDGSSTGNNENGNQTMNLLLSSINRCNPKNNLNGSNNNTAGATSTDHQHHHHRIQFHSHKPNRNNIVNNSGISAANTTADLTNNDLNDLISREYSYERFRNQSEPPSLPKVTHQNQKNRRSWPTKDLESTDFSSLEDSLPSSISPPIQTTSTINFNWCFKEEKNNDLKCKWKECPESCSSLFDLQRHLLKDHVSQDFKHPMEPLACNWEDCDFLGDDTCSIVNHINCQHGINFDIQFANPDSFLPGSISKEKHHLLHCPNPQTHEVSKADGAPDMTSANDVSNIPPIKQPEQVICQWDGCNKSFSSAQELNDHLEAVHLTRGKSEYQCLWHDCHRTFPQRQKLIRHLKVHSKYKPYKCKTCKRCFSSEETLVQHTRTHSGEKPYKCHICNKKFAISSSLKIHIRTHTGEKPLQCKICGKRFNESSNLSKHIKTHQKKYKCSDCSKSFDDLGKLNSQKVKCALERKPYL
Test: PBM E-score (8-mer binding enrichment) (E-score (-0.5 to 0.5)); higher = stronger / more preferred TF binding; most listed sequences are background and not binding sites
Conditions: protein concentration: 200 nM; construct: GST-full length
Outline: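 E-scores (a modified Wilcoxon-Mann-Whitney statistic) were assigned by the Universal PBM Analysis Suite to every ungapped eight-base word pooled with its reverse complement. The input came from universal all-10-mer Agilent arrays made double-stranded by primer extension and probed with GST-tagged yeast transcription factors at about 100-200 nM. Fluorescent anti-GST detected bound protein, and masliner normalised the scans.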

Sequence | PBM E-score
CCAATCTA | 0.00747
AGTAAGTC | -0.412
CTATCTAC | -0.064
GCCTGACA | -0.384
TGGAGAAA | 0.0584
TCTGTGCA | -0.0521
TACCAACA | 0.223
AGTCATCA | -0.0593
ATCGACTC | -0.101
CGTCGCAG | -0.0222
AGCCCAAC | -0.0986
GGATGGTA | 0.0744
GGACATTA | 0.0786
ACGTAACC | 0.411
CCCGGTGA | -0.0359
CAATGATG | -0.101
ACTGACCG | 0.00494
CATCTTGA | -0.0414
GGGACGAA | 0.0111
CAGGGCGA | -0.0893
ATCTTGAG | -0.0439
CTTCCCGA | -0.0237
CGTGACAA | -0.0387
GGAGATAC | -0.0504
AACGCATT | 0.0284

Sequence | PBM E-score
CCCCTCCC | 0.0739
AATCAAGA | 0.0806
TAAAAGTA | 0.149
ATGGCCCA | 0.0132
TGATAAAA | 0.17
GATTTCAA | -0.0393
GGCTACCA | 0.145
AGCCACCT | -0.111
ATAGGACG | -0.292
ATGATTAG | 0.00409
CGTTACGA | 0.121
GGTTCTGA | 0.279
GCCGTGAC | 0.124
GCATGCGA | -0.074
GGTCACCA | 0.261
CCGTACTC | -0.185
CTATCGAG | -0.00103
CTGTGTAC | -0.0289
ACCAACAT | 0.0968
AAGCTAAT | 0.0587
CGTGGGGC | -0.23
AGTTATCG | 0.182
GCCGCCTA | -0.271
CAGATCCA | -0.2
CAGGTGAA | -0.0882

Sequence | PBM E-score
CCAGCGAA | -0.0737
CCAAAACC | 0.331
AGCCAGCC | -0.276
GTCAACAA | 0.0413
ACTGTCTG | -0.0351
AAATAGTA | 0.0886
CGGGGGTA | -0.0836
AGTGTGCC | -0.127
CCCGAAAA | 0.159
AATGCTGT | -0.0865
CACGCTTA | -0.0534
AGGCTAAT | -0.0215
CATGTACC | 0.0466
GCCTGCCA | -0.189
TGACCGAA | 0.162
CATAAGAC | -0.0321
ATGGGTAG | 0.238
AAACCAAA | 0.254
ACTGTAAA | 0.196
CTTCGATA | 0.00101
GAACTTGC | -0.195
GAGGATTA | -0.00063
GCCGACAC | -0.14
ACCCGGAG | 0.304
GCAGCACA | -0.0816

Sequence | PBM E-score
GGCAGTAA | 0.0175
AAAAAGAG | -0.0314
ACTTAAGC | -0.241
CGGGACGA | -0.0434
GGAATGGA | -0.147
CCAGGGCC | -0.107
AAGTCCAG | 0.0214
AGACCGAG | 0.0347
GCGAATAA | 0.0462
ACGATAAG | -0.0456
AATTCTAC | 0.104
TAATCTCA | 0.00156
GCTTGCAA | -0.0836
ACGGGCTA | -0.26
CTTCTGAA | -0.0539
AAGTTAAA | 0.0966
ATAGGTAG | 0.172
ACATGGCG | -0.221
CCGCGACG | -0.0672
GGGGTATA | 0.182
CGGCATTC | -0.148
GGACAAAA | 0.211
ATGCACCC | 0.00928
ACATGGAC | -0.00274
AGCCCACA | -0.18

Sequence | PBM E-score
CACTCGAC | -0.222
AAAGGGCC | 0.0873
CTGGGAAG | 0.0904
ATTGGCGC | -0.23
CTGAGAAC | 0.0895
CAAATGTC | -0.185
TCATTTCA | 0.112
CGGAGCAA | -0.179
CTCTTACA | -0.0447
CGGATCTA | -0.0644
ACACGCCA | -0.276
ACTCCCGC | -0.16
ATGTAAAC | 0.0283
GTTCGCCA | 0.00409
GCCCGCAA | 0.055
AAAGGACT | -0.0983
ACGTTTCG | -0.047
AAACTAAG | 0.178
ACAGATAT | 0.0689
CATCAAAA | 0.0889
GAATAGGA | 0.00481
ATCATCAT | -0.053
TACGAAAA | 0.173
ACTAAAAC | 0.19
AGCTGTCC | -0.225

Sequence | PBM E-score
AGAGTTTG | -0.0823
TACGCCTA | -0.15
GGGTGTCA | 0.0516
CGGCAACA | -0.0972
AATAATGC | 0.14
CCCCGACC | -0.00227
AAACCTGC | -0.023
CGTCACCA | 0.0249
TAGAGCGA | -0.2
ATCCCCAT | 0.0858
CCGTACGC | -0.289
ATGTATGC | -0.00123
AAGCCGGT | 0.0436
GCGGGAGC | -0.247
CAAGGGAG | 0.00323
TATTGTGA | 0.133
AGCTTCGC | -0.222
CGTCCTAG | -0.164
AAAGACTA | -0.0199
ATCTAATA | 0.211
CAGCTATC | -0.201
CCCCATCA | 0.0773
ACTAGACA | 0.0153
CGTAGATC | -0.14
AGAGGATA | 0.0711

Sequence | PBM E-score
AGTGGTAC | 0.204
ATGATCCG | -0.0324
GTTCCGGA | -0.0987
ACGTTCCG | -0.304
CCTGCCAG | -0.0849
AAAACGAC | 0.181
ATGCAGCG | -0.196
AGAATAGG | 0.0937
GGCAGGCC | -0.345
CCCCCCGC | -0.286
GCTGTGCA | -0.0863
CAAAGGTG | 0.0139
GGCCAGCA | -0.185
AATCCTAT | 0.054
CCAGGTTC | -0.159
GGAGACAA | -0.08
CCATCAGC | 0.0766
CCCAATCC | 0.0373
CTTTCCTC | -0.0382
GCGACCCA | 0.0978
TCGAGTAA | 0.194
AGCTGTTG | -0.0641
